In patent US20260042865A1 (Amgen, published 2026):

What was measured:
Mouse IgG2a (mouse) [1] = experiment: Octet (BLI), mouse IgG2a on streptavidin biosensor, pH 6, 2 uM CaCl2
Mouse IgG2a (mouse) [2] = experiment: Octet (BLI), mouse IgG2a on streptavidin biosensor, pH 7.4, 2 mM CaCl2
Mouse IgG2a (mouse) [3] = experiment: Octet (BLI); ratio of the pH 6/2 uM CaCl2 value to the pH 7.4/2 mM CaCl2 value (fits the ratio of kdiss)

Sequence of Mouse IgG2a (mouse) (P01863 whole entry, the tested form may be a part): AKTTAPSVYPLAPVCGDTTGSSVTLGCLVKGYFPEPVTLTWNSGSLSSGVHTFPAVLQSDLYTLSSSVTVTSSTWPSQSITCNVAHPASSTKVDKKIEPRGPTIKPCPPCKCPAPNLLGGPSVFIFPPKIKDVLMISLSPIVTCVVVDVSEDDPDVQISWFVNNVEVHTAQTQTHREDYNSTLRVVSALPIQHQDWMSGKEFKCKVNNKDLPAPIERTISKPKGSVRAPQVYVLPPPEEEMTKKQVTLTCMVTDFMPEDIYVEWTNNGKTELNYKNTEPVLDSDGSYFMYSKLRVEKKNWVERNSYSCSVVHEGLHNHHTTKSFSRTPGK

Binder | Kd (Mouse IgG2a (mouse) [1]) [nM] | koff (Mouse IgG2a (mouse) [1]) [s⁻¹] | kon (Mouse IgG2a (mouse) [1]) [M⁻¹ s⁻¹] | Kd (Mouse IgG2a (mouse) [2]) [nM] | koff (Mouse IgG2a (mouse) [2]) [s⁻¹] | kon (Mouse IgG2a (mouse) [2]) [M⁻¹ s⁻¹] | pH 6/pH 7.4 (Mouse IgG2a (mouse) [3])
Catabolic anti-mIgG2a 099 Fab-scFc (Fc fusion) heavy: EQLEESGGDLVKPGASLTLTCTASGFSFTSDYYMCWVRQAPGKGLEWIACIGAGDIHTTYYANWAKGRFTISKTSSTTVTLQMTTLTAADTATYFCARDTYNIGGYTGDFDLWGPGTLVTVSS[human IgG1 constant region cut from this listing]GGGGSGGGGSGGGGSGGGGSGGGGSGGGGS[human IgG1 Fc cut from this listing] light: ALVMTQPPASVSAAVGGTVTINCQASESISTWLAWYQQKPGQPPKLLIYYASTLASGVPSRFKGSGSGTQFTLTISGVECDDAATYYCAGHKSYSSDDFAFGGGTEVVVKGTVAAPSVFIFPPSDEQLKSGTASVVCLLNNFYPREAKVQWKVDNALQSGNSQESVTEQDSKDSTYSLSSTLTLSKADYEKHKVYACEVTHQGLSSPVTKSFNRGEC | 9.3 | 0.00068 | 74000 | 3 | 0.00024 | 81000 | 
Catabolic anti-mIgG2a 465 Fab-scFc (Fc fusion) heavy: EQLEESGGDLVKPGASLTLTCTASGFSFTSDYYMCWVRQAPGKGLEWIACHGAGDIHTTYYANWAKGRFTISKTSSTTVTLQMTTLTAADTATYFCARDTYNIGGYTGDFDLWGPGTLVTVSS[human IgG1 constant region cut from this listing]GGGGSGGGGSGGGGSGGGGSGGGGSGGGGS[human IgG1 Fc cut from this listing] light: ALVMTQPPASVSAAVGGTVTINCQASESISTWLAWYQQKPGQPPKLLIYYASTLASGVPSRFKGSGSGTQFTLTISGVECDDAATYYCAGHKSYSSDDFAFGGGTEVVVKGTVAAPSVFIFPPSDEQLKSGTASVVCLLNNFYPREAKVQWKVDNALQSGNSQESVTEQDSKDSTYSLSSTLTLSKADYEKHKVYACEVTHQGLSSPVTKSFNRGEC | 260000 | 0.022 |  | 10 | 0.00054 | 54000 | 41.1
Catabolic anti-mIgG2a 463 Fab-scFc (Fc fusion) heavy: EQLEESGGDLVKPGASLTLTCTASGFSFTSDYYHCWVRQAPGKGLEWIACIGAGDIHTTYYANWAKGRFTISKTSSTTVTLQMTTLTAADTATYFCARDTYNIGGYTGDFDLWGPGTLVTVSS[human IgG1 constant region cut from this listing]GGGGSGGGGSGGGGSGGGGSGGGGSGGGGS[human IgG1 Fc cut from this listing] light: ALVMTQPPASVSAAVGGTVTINCQASESISTWLAWYQQKPGQPPKLLIYYASTLASGVPSRFKGSGSGTQFTLTISGVECDDAATYYCAGHKSYSSDDFAFGGGTEVVVKGTVAAPSVFIFPPSDEQLKSGTASVVCLLNNFYPREAKVQWKVDNALQSGNSQESVTEQDSKDSTYSLSSTLTLSKADYEKHKVYACEVTHQGLSSPVTKSFNRGEC | 580 | 0.01 | 17000 | 5 | 0.0002 | 40000 | 50
